Variants at the background level are over-represented here.
B1: tRNA (parent)
chain: CUCUCGGUAGCCAAGUUGGUUUAAGGCGCAAGACUUUAAUUUAUCACUACGAAAUCUUGAGAUCGGGCGUUCGACUCGCCCCCGGGAGAUUUUUUCCUCGAGCAA

Variants of: B1
Test: nonsense suppression (GFP-seq) (ratio to wild type); higher = more function; SUP4oc tRNA, yeast GFP reporter sort-seq
Method in brief: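 Yeast were grown in raffinose/galactose medium with 80 mg/L adenine, each strain bearing a genome-integrated ochre-suppressor tRNA variant from a ~3% random-mutation library, a galactose-driven GFP ochre reporter, and RFP. After sorting into GFP/RFP bins, every bin was sequenced on an Illumina platform at phred ≥30. The GFPSEQ value, a measure of nonsense suppression, is the weighted bin median GFP/RFP relative to the unmutated parent tRNA, using each variant's estimated cell share per bin as the weight. Only variants with ≥100 reads and ≥30 cells were included.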

Variant | nonsense suppression
CUCUGGGGAGCCAAGUUGGUUUAAGCCGCAAGACUUUAAUUUAUCACUACGAAAUCUUGAGAUCGGGCGUUCGACUCGCCCCCGGGAGAUUUUUUCCUCGAGCAA | ≤ 0.026
CUCUGGGUAGCCAAGAUGGUUCAAGGCGCAAGACUUUAAUUUAUCACUACGAAAUCCUGAGAUCGGGCGUUUGACUCGCCCCCGGGCGAUUUUUUCCUCGAGCAA | ≤ 0.026
CUCUGGGUAGCCAAGCUGGUUUAAGGCGCAAGACUUUAAUUUAUCACUACGAAAUCUUGAGAUCGGGCGUUCGACUCGCCCCCGGGAGAUUUUUUCCUCGAGCAA | ≤ 0.026
CUCUGGGUAGCCAAGCUGGUUUAAGGCGCAAGAAUUUAAUUUAUCACUACGAAAUCUUGAGAUCGGGCUUUGGACUCGCCCCCGGGAGAUUUUUUCCUCGAGCAA | ≤ 0.026
CUCUGGGUAGCCAAGGUGGUUUAAGGCGCAAGACUUUAAUUUAUCACUACGAAAUCUUGAGAUCGGGCUUUCGACUCGCCCCCGGGAGAUUUUUUCCUCGAGCAA | ≤ 0.026
CUCUGGGUAGCCAAGUUGGAUUAAGGCGCAAGACUUUAAUUUAUCACUACGAAAUCUUGCGAUAGGGCGUUCGACUCGCCCCCGGGAGAUUUUUUCCUCGAGCAA | ≤ 0.026
CUCUGGGUAGCCAAGUUGGGUUAAGGCGCAAGACUUUAAUUUAUCACUACGAAAUCUUGAGAUCGGGCGUUCGACUCGCCCCCGGGAGAUUUUUUCCUCGAGCAA | ≤ 0.026
CUCUGGGUAGCCAAGUUGGGUUAAGGCGCAAGAGUUUAAUUUAUCACUACGAAAUCUUGAGAUCGGGCGUUCGACUCGCCCCCGGGAGAUUUUUUCCUCGAGCAA | ≤ 0.026
CUCUGGGUAGCCAAGUUGGGUUAAGGCGCAAGACUUUAAUUUAUCACUACGAAAUCUUGAGAUCGGGCGUUCGAGUCGCCCCCGGGAUAUUUUUUCCUCGAGCAA | ≤ 0.026
CUCUGGGUAGCCAAGUUGGUCUAAGGCGCAAGACUUUAAUUUAUCACUACGAAGUCUUGAGAUCGGGCGUUCGACCCGCCCCCGGGAGAUUUUUUCCUCGAGCAA | ≤ 0.026
CUCUGGGUAGCCAAGUUGGUUCAAGGCGCAAGACUUUAAUUUAUCACUACGAAAUCUUGAGAUCGGGCGUUCGACUCGCCCCCGGGAGAUUUUUUCCUCGAGCAA | ≤ 0.026
CUCUGGGUAGCCAAGUUGGUUGAAGGCGCAAGACUUUAAUUUAUCACUACGAAAUCUUGAGAUCGGGCGUUCGACUCGCCCCCGGGAGAUUUUUUCCUCGAGCAA | ≤ 0.026
CUCUGGGUAGCCAAGUUGGUUUAAGGCGCAAGACAUUAAUUUAUCACUACGAAAUCUUGAGAACGGGCGUUCGACACGCUCCCGGGAGAUUUUUUCCUCGAGCAA | ≤ 0.026
CUCUGGGUAGCCAAGUUGGUUUAAGGCGCAAGACUUUAAUUUAUCACUACGAAACCUUGAGAUCGGGCCUUCGACUCGCCCCCGGUAGAUUUUUUCCUCGAGCAA | ≤ 0.026
CUCUGGGUAGCCAAGUUGGUUUAAGGCGCAAGACUUUAAUUUAUCACUACGAAACCUUGAGAUCGGGCGCUCGACUCGCCCCCGGGAGAUUUUUUCCUCGAGCAA | ≤ 0.026
CUCUGGGUAGCCAAGUUGGUUUAAGGCGCAAGACUUUAAUUUAUCACUACGAAAUCAUGAGAUCGGGCGUUCGACUCGCCCCCGGGAGAUUUUUUCCUCGAGCAA | ≤ 0.026
CUCUGGGUAGCCAAGUUGGUUUAAGGCGCAAGACUUUAAUUUAUCACUACGAAAUCUGGAGAUCGGGCGUUCGACACGCCCCCGGGAGAUUUUUUCCUCGAGCAA | ≤ 0.026
CUCUGGGUAGCCAAGUUGGUUUAAGGCGCAAGACUUUAAUUUAUCACUACGAAAUCUUGAGAUCGGGCGCUCGACUCGCCCCCGGGAGAUUUUUUCCUCGAGCAA | ≤ 0.026
CUCUGGGUAGCCAAGUUGGUUUAAGGCGCAAGACUUUAAUUUAUCACUACGAAAUCUUGAGAUCGGGCGUCCGACUCGCCCCCGGGAGAUUUUUUCCUCGAGCAA | ≤ 0.026
CUCUGGGUAGCCAAGUUGGUUUAAGGCGCAAGACUUUAAUUUAUCACUACGAAAUCUUGAGAUCGGGCGUGCGACUCGCCCCCGGGAGAUUUUUUCCUCGAGCAA | ≤ 0.026
CUCUGGGUAGCCAAGUUGGUUUAAGGCGCAAGACUUUAAUUUAUCACUACGAAAUCUUGAGAUCGGGCGUUCGACGCGCCCCCGGGAGAUUUUUUCCUCGAGCAA | ≤ 0.026
CUCUUGGUCGCCGAGUUGGUUUAAGGCGCAAGACUUUAAUUUAUCACUACGAAAUCGUAAGAUCGGGCGUACGACACGCCCCCGGGAGAUUUUUUCCUCGAGCAA | ≤ 0.026
CUCUUGGUCGCCAAGUUGGUUUAAGUCGCAAGACUUUAAUUUAUCACUACGAAAUCUUGAGAUCGGGCGUUCGACUCGCCCCCGGGAGAUUUUUUCCUCGAGCAA | ≤ 0.026
CUCUUGGUGGCCAAGUUGGUUUAAGGCGCAAGACUUUAAUUUAUCACUACGAAAUCUUGAGAUCGGGCGUUCGACUCGCCCCCGGGAGAUUUUUUCCUCGAGCAA | 0.0324
CUCUUGGUGGACAAGUUGGUUACAGGCGCAAGACUUUAAUUUAUCACUACGAAAUCUUGAGAUCGGACGUACGACUCUCCCCCGGGAGAUUUUUUCCUCGAGCAA | ≤ 0.026
CUCUUGGUUGCCAAGUUGGUUUAACGCGCAAGACAUUAAUUUAUCACUACGAAAUCUUUAGAUCGGGCGUUCGACUCGCCCCCGGGAGAUUUUUUCCUCGAGCAA | ≤ 0.026
CUCUUGGUAGCCCAGUUGGUUUAAGGCGCAUGACUUUAAUUUAUCACUACGAAAUCUUGAUAUCCGGCGUUCGACUCGCCCCCGGGAGAUUUUUUCCUCGAGCAA | ≤ 0.026

Variant | nonsense suppression
CUCUUGGUAGCCCAGUUGGUUUAAGGCGCAAGACUUUAAUUUAUCACUACGAAAUCUUGAGAUCGGGCGUUCGACACGCCCCCGGGAGAUUUUUUCCUCGAGCAA | ≤ 0.026
CUCUUGGUAGCCGAGUUGGUUUAAGGCACAAGACUUUAAUUUAUCACUACGAAAUCUUGAGAUCGCGCGUUCGACUCGCCCCCGGGAGAUUUUUUCCUCGAGCAA | ≤ 0.026
CUCUUGGUAGCCGAGUUGGUUUAAGGCGCAACACUUUAAUUUAUCACUACGAAAUCUUGAGAUCGGGCGUUCGACUCGCGCCCGGGAGAUUUUUUCCUCGAGCAA | ≤ 0.026
CUCUUGGUAGCCGAGUUGGUUUAAGGCGCAAGACUUUAAUUUAUCACUACGAAAUCUUGAGAGCGGGCGUUCGACACGCCCACGGGAGAUUUUUUCCUCGAGCAA | ≤ 0.026
CUCUUGGUAGCCUAGUUGGUUUUAGGCGCAAGACUUUAAUUUAUCACUACGAAAUCUUGAGAUCGGGCGUUCGACUCGCCCCCGGGACAUUUUUUCCUCGAGCAA | ≤ 0.026
CUCUUGGUAGCCACGUUGGUUUAAGGCGCAAGACUUUAAUUUAUCACUACGAAAUCUUGAGAUCGGGCGUUCGACUCGCCCCGGGGCGAUUUUUUCCUCGAGCAA | ≤ 0.026
CUCUUGGUAGCCAGGUUGAUUUAAGGCGCAAGACUUUAAUUUAUCACUACGAAAUCUUGAGAUCGGGCGUUCGACUCGCCCCCGGGAGAUUUUUUCCUCGAGCAA | ≤ 0.026
CUCUUGGUAGCCAGGUUGGUUUAAGGCGCAAGACUUUAAUUUAUCACUACGAAAGCUUGAGAUCGGGCGUUCGACUCGCCCCCGGGAGAUUUUUUCCUCGAGCAA | ≤ 0.026
CUCUUGGUAGCCAGGUUGGUUUAAGGCGCAAGACUUUAAUUUAUCACUACGAAAUCAUGAGAUCGGGCGUUCGACUCACCCCCGGGAGAUUUUUUCCUCGAGCAA | ≤ 0.026
CUCUUGGUAGCCAUGUUGGUUUACGGCGCAAGACUUUAAUUUAUCACUACGAAAUCUUGAGAUCGGGCGUUCGACUCGCCCCCGGGAGAUUUUUUCCUCGAGCAA | ≤ 0.026
CUCUUGGUAGCCAUGUUGGUUUAAGGCUCAAGACUUUAAUUUAUCACUACGAAAUCUUGAGAUCGCGCGUUCGACUCGACCCCGGGAGAUUUUUUCCUCGAGCAA | ≤ 0.026
CUCUUGGUAGCCAAGUUGGUUUCAGGCGCAAGACUUUAAUUUAUCACUACGAAAUCUUGACAUCGGGCAUUCGACUCGCCCCCGGGAGAUUUUUUCCUCGAGCAA | ≤ 0.026
CUCUUGGUAGCCAAGUUGGUUUGAGGCGCAAGACUUUAAUUUAUCACUACGAAGUCUUGAAAUCGGGCGUUCGACUCGCCCCCGGGAGAUUUUUUCCUCGAGCAA | ≤ 0.026
CUCUUGGUAGCCAAGUUGGUUUGAGGCGCAAGACUUUAAUUUAUCACUACGAAAUCUUGAGAUCGAGCGUUCGACUGGCCCCCGGGAGAUUUUUUCCUCGAGCAA | ≤ 0.026
CUCUUGGUAGCCAAGUUGGUUUUAGGCGCAAGACUUUAAUUUAUCACUACGAAAUCGUGAGAUCGGGCGUUCUACUCGCCCCCGGUAGAUUUUUUCCUCGAGCAA | ≤ 0.026
CUCUUGGUAGCCAAGUUGGUUUACCGCGCAAGACUUUAAUUUAUCACUACGAAAUCUUGAGAUCGGGCGUUAGACUCGCCCCCGGGAGGUUUUUUCCUCGAGCAA | ≤ 0.026
CUCUUGGUAGCCAAGUUGGUUUACGGCGCAAGACUUUAAUUUAUCACUACGAAACCCUGAGAUCGGGCGUUCGACUCGCCCCCGGGAGAUUUUUUCCUCGAGCAA | ≤ 0.026
CUCUUGGUAGCCAAGUUGGUUUAUGGCGCAAGACAUUAAUUUAUCACUACGAAAUCUUGAGAUCGGGCGUUCGACUCGCCCCCGGGAGAUUUUUUCCUCGAGCAA | ≤ 0.026
CUCUUGGUAGCCAAGUUGGUUUAAGGCGCCAGACUUUAAUUUAUCACUACGAAAUCUUGAGAUCGGGCGUUCGACUCGCCCCCCGGAGAUUUUUUCCUCGAGCAA | ≤ 0.026
CUCUUGGUAGCCAAGUUGGUUUAAGGCGCGAGACUUUAAUUUAUCACUACGAAAUCUUGAGAUCGGGCGUUCGACUCGCCCCCGGGAGAUUUUUUCCUCGAGCAA | ≤ 0.026
CUCUUGGUAGCCAAGUUGGUUUAAGGCGCUAGACUUUAAUUUAUCACUACGAAAUCUUGAGAUCGGGCGUUCGACUCGCCCCCGGGAAAUUUUUUCCUCGAGCAA | ≤ 0.026
CUCUUGGUAGCCAAGUUGGUUUAAGGCGCAGGACUUUAAUUUAUCACUACGAAAUCUUGAGAUCGAGCGUUCGACUCGCCCCCGGGAGAUUUUUUCCUCGAGCAA | ≤ 0.026
CUCUUGGUAGCCAAGUUGGUUUAAGGCGCAGGACUUUAAUUUAUCACUACGAAAUCUUGAGAUCGGGCGUCCGACUCGCCCCCGGGAGAUUUUUUCCUCGAGCAA | ≤ 0.026
CUCUUGGUAGCCAAGUUGGUUUAAGGCGCAAGGCUUUAAUUUAUCACUACGAAAUCUUGAGAUCGGGCGUUCGACUCCCCUCCGGGAGAUUUUUUCCUCGAGCAA | ≤ 0.026
CUCUUGGUAGCCAAGUUGGUUUAAGGCGCAAGACUUUAAUUUAUCACUACGAAGUCUUGAGAUCGGGCGUUCGACUCGCCCCCGGGAGAUUUUUUCCUCGAGCAA | ≤ 0.026
CUCUUGGUAGCCAAGUUGGUUUAAGGCGCAAGACUUUAAUUUAUCACUACGAAUUCUUGAGCUCGGGCGUUCGACUCGCCCCCGGGAGAUUUUUUCCUCGAGCAA | ≤ 0.026
CUCUUGGUAGCCAAGUUGGUUUAAGGCGCAAGACUUUAAUUUAUCACUACGAAAUCUUGCGAUCGGGCGUUCGACUCGCCCCCGGGAGAUUUUUUCCUCGAGCAA | 0.0867

Source: the RNAGym collection of RNA variant scans (doi:10.1101/gad.245936.114)
